From the CheMixHub viscosity set
This continues a long series; more values of the same kind are listed elsewhere.

Assay: xn = mol fraction of the nth substance listed

CC(=O)O + O
Settings | viscosity [mPa·s]
293.15 K, 101.33 kPa, x1 = 0.05405 | 1.342
293.15 K, 101.33 kPa, x1 = 0.06928 | 1.407
293.15 K, 101.33 kPa, x1 = 0.1111 | 1.66
293.15 K, 101.33 kPa, x1 = 0.14 | 1.742
293.15 K, 101.33 kPa, x1 = 0.221 | 2.126
293.15 K, 101.33 kPa, x1 = 0.2483 | 2.15
293.15 K, 101.33 kPa, x1 = 0.2736 | 2.284
293.15 K, 101.33 kPa, x1 = 0.2837 | 2.315
293.15 K, 101.33 kPa, x1 = 0.3175 | 2.392
293.15 K, 101.33 kPa, x1 = 0.3187 | 2.344
293.15 K, 101.33 kPa, x1 = 0.3459 | 2.446
293.15 K, 101.33 kPa, x1 = 0.4211 | 2.568
293.15 K, 101.33 kPa, x1 = 0.4804 | 2.658
293.15 K, 101.33 kPa, x1 = 0.5154 | 2.682
293.15 K, 101.33 kPa, x1 = 0.5454 | 2.675
293.15 K, 101.33 kPa, x1 = 0.5625 | 2.635
293.15 K, 101.33 kPa, x1 = 0.5775 | 2.681
293.15 K, 101.33 kPa, x1 = 0.7753 | 2.541
293.15 K, 101.33 kPa, x1 = 0.819 | 1.914
293.15 K, 101.33 kPa, x1 = 0.9722 | 1.338
293.15 K, 101.33 kPa, x2 = 0.0197 | 1.33
293.85 K, 101.33 kPa, x1 = 0.47 | 2.575
294.15 K, 101.33 kPa, x1 = 0.97 | 1.212
294.34 K, 101.33 kPa, x1 = 0.0296 | 1.145
295.85 K, 101.33 kPa, x1 = 0.5999 | 2.405
298.15 K, 101 kPa, x1 = 0.078 | 1.202
298.15 K, 101 kPa, x1 = 0.1141 | 1.352
298.15 K, 101 kPa, x1 = 0.1338 | 1.192
298.15 K, 101 kPa, x1 = 0.1617 | 1.572
298.15 K, 101.33 kPa, x1 = 0.06928 | 1.234
298.15 K, 101.33 kPa, x1 = 0.14 | 1.529
298.15 K, 101.33 kPa, x1 = 0.3175 | 2.077
298.15 K, 101.33 kPa, x1 = 0.9722 | 1.223
298.35 K, 101.33 kPa, x1 = 0.0296 | 1.033
302.34 K, 101.33 kPa, x1 = 0.0296 | 0.948
302.65 K, 101.33 kPa, x1 = 0.3914 | 1.984
302.85 K, 101.33 kPa, x1 = 0.97 | 1.062
303.05 K, 101.33 kPa, x1 = 0.45 | 1.994
303.05 K, 101.33 kPa, x1 = 0.819 | 1.543
303.15 K, 101 kPa, x1 = 0.1338 | 1.333
303.15 K, 101.33 kPa, x1 = 0.0446 | 0.9936
303.15 K, 101.33 kPa, x1 = 0.06928 | 1.099
303.15 K, 101.33 kPa, x1 = 0.1111 | 1.262
303.15 K, 101.33 kPa, x1 = 0.14 | 1.361
303.15 K, 101.33 kPa, x1 = 0.2111 | 1.546
303.15 K, 101.33 kPa, x1 = 0.221 | 1.638
303.15 K, 101.33 kPa, x1 = 0.2322 | 1.606
303.15 K, 101.33 kPa, x1 = 0.2483 | 1.665
303.15 K, 101.33 kPa, x1 = 0.2736 | 1.711
303.15 K, 101.33 kPa, x1 = 0.2837 | 1.76
303.15 K, 101.33 kPa, x1 = 0.3175 | 1.842
303.15 K, 101.33 kPa, x1 = 0.3187 | 1.801
303.15 K, 101.33 kPa, x1 = 0.3459 | 1.909
303.15 K, 101.33 kPa, x1 = 0.4211 | 1.995
303.15 K, 101.33 kPa, x1 = 0.4251 | 1.962
303.15 K, 101.33 kPa, x1 = 0.4804 | 2.04
303.15 K, 101.33 kPa, x1 = 0.5154 | 2.073
303.15 K, 101.33 kPa, x1 = 0.5454 | 2.064
303.15 K, 101.33 kPa, x1 = 0.5625 | 2.024
303.15 K, 101.33 kPa, x1 = 0.5775 | 2.083
303.15 K, 101.33 kPa, x1 = 0.6452 | 1.951
303.15 K, 101.33 kPa, x1 = 0.7145 | 1.824
303.15 K, 101.33 kPa, x1 = 0.7753 | 2.001
303.15 K, 101.33 kPa, x1 = 0.9722 | 1.14
303.15 K, 101.33 kPa, x2 = 0.0197 | 1.139
303.35 K, 101.33 kPa, x1 = 0.5999 | 2.014
303.45 K, 101.33 kPa, x1 = 0.47 | 1.994
303.65 K, 101.33 kPa, x1 = 0.0296 | 0.925
303.65 K, 101.33 kPa, x1 = 0.333 | 1.814
308.15 K, 101.33 kPa, x1 = 0.2 | 1.303
308.15 K, 101.33 kPa, x1 = 0.4 | 1.768
308.15 K, 101.33 kPa, x1 = 0.5 | 1.847
308.15 K, 101.33 kPa, x1 = 0.55 | 1.848
308.15 K, 101.33 kPa, x1 = 0.6 | 1.81
308.15 K, 101.33 kPa, x1 = 0.8 | 1.524
312.55 K, 101.33 kPa, x1 = 0.47 | 1.603
312.55 K, 101.33 kPa, x1 = 0.819 | 1.283
312.55 K, 101.33 kPa, x1 = 0.97 | 0.923
312.65 K, 101.33 kPa, x1 = 0.5294 | 1.623
312.65 K, 101.33 kPa, x1 = 0.6924 | 1.523
313.15 K, 101 kPa, x1 = 0.1338 | 1.067
313.15 K, 101.33 kPa, x1 = 0.03226 | 0.802
313.15 K, 101.33 kPa, x1 = 0.0446 | 0.7993
313.15 K, 101.33 kPa, x1 = 0.1139 | 1.053
313.15 K, 101.33 kPa, x1 = 0.2111 | 1.221
313.15 K, 101.33 kPa, x1 = 0.2308 | 1.335
313.15 K, 101.33 kPa, x1 = 0.2322 | 1.255
313.15 K, 101.33 kPa, x1 = 0.333 | 1.453
313.15 K, 101.33 kPa, x1 = 0.3914 | 1.543
313.15 K, 101.33 kPa, x1 = 0.4118 | 1.623
313.15 K, 101.33 kPa, x1 = 0.4251 | 1.517
313.15 K, 101.33 kPa, x1 = 0.5454 | 1.679
313.15 K, 101.33 kPa, x1 = 0.5625 | 1.593
313.15 K, 101.33 kPa, x1 = 0.6452 | 1.533
313.15 K, 101.33 kPa, x1 = 0.7145 | 1.381
313.15 K, 101.33 kPa, x2 = 0.0132 | 1.035
313.25 K, 101.33 kPa, x1 = 0.45 | 1.563
313.25 K, 101.33 kPa, x1 = 0.4999 | 1.593
313.45 K, 101.33 kPa, x1 = 0.5999 | 1.583
318.15 K, 101.33 kPa, x1 = 0.2 | 1.095
318.15 K, 101.33 kPa, x1 = 0.4 | 1.403
318.15 K, 101.33 kPa, x1 = 0.5 | 1.449
318.15 K, 101.33 kPa, x1 = 0.55 | 1.45
318.15 K, 101.33 kPa, x1 = 0.6 | 1.433
318.15 K, 101.33 kPa, x1 = 0.8 | 1.226
321.65 K, 101.33 kPa, x1 = 0.5625 | 1.343
322.45 K, 101.33 kPa, x1 = 0.45 | 1.293
322.55 K, 101.33 kPa, x1 = 0.97 | 0.812
322.65 K, 101.33 kPa, x1 = 0.4999 | 1.313
322.65 K, 101.33 kPa, x1 = 0.819 | 1.072
322.85 K, 101.33 kPa, x1 = 0.5294 | 1.313
322.95 K, 101.33 kPa, x1 = 0.47 | 1.293
323.05 K, 101.33 kPa, x1 = 0.6924 | 1.242
323.15 K, 101 kPa, x1 = 0.1338 | 0.8332
323.15 K, 101.33 kPa, x1 = 0.0446 | 0.6488
323.15 K, 101.33 kPa, x1 = 0.2111 | 0.957
323.15 K, 101.33 kPa, x1 = 0.2322 | 0.9904
323.15 K, 101.33 kPa, x1 = 0.4251 | 1.187
323.15 K, 101.33 kPa, x1 = 0.6452 | 1.198
323.15 K, 101.33 kPa, x1 = 0.7145 | 1.17
